Experimental data as given in the supplement of paper PMC7125110.
Variants at the floor of the assay are shown more often than the library holds them.

B1: glmS ribozyme (parent)
chain: AUAAAAGCGCCAGAACUACAGAAAUGUAGUUGACGAGGAGGAGGUUUAUCGAAUUUUCGGCGGAUGCCUCCAAA

Columns and labels:
Details in all cases: with glucosamine-6-phosphate
glucosamine-6-phosphate [1] = variants of: B1; test: self-cleavage kobs at 40 uM GlcN6P; higher = faster cleavage; RNA array
Summary of the method: (§1)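 Tiles bearing barcoded ribozyme variants, transcribed in situ by E. coli RNA polymerase on sequenced MiSeq chips, were imaged over ~14 h at 37 °C using a hybridised Cy3 probe. Glucosamine-6-phosphate was supplied at 40 μM to 10 mM in HEPES/KCl/Mg(OAc)2 buffer. kobs came from one- or two-exponential decay fits to normalised per-tile medians, and weighted Michaelis–Menten fits then provided kcat and KM.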

glucosamine-6-phosphate [2] = variants of: B1; test: self-cleavage kobs at 640 uM GlcN6P; higher = faster cleavage; RNA array
Summary of the method: as §1

glucosamine-6-phosphate [3] = variants of: B1; test: self-cleavage kobs at 2500 uM GlcN6P; higher = faster cleavage; RNA array
Summary of the method: as §1

glucosamine-6-phosphate [4] = variants of: B1; test: self-cleavage kobs at 10000 uM GlcN6P; higher = faster cleavage; RNA array
Summary of the method: as §1

glucosamine-6-phosphate [5] = variants of: B1; test: self-cleavage kobs at 160 uM GlcN6P; higher = faster cleavage; RNA array
Summary of the method: as §1

Variant | self-cleavage kobs at 40 uM GlcN6P (glucosamine-6-phosphate [1]) [s⁻¹] | self-cleavage kobs at 640 uM GlcN6P (glucosamine-6-phosphate [2]) [s⁻¹] | self-cleavage kobs at 2500 uM GlcN6P (glucosamine-6-phosphate [3]) [s⁻¹] | self-cleavage kobs at 10000 uM GlcN6P (glucosamine-6-phosphate [4]) [s⁻¹] | self-cleavage kobs at 160 uM GlcN6P (glucosamine-6-phosphate [5]) [s⁻¹]
AUAAAAACGCCAGAACUACAGAAAUGUAGUUGACGAGCAAGAGGUUUAUCGAAUUUUCGGCGGAUGCCUCCAAA | < 1e-05 | – | – | – | –
AUAAAAACGCCAGAACUACAGAAAUGUAGUUGACGAGGAAGAGGUUUAUCGAAUUUUCGGCAGAUGUCUCCAAA | < 1e-05 | < 1e-05 | < 1e-05 | < 1e-05 | –
AUAAAAACGCCAGAACUACAGAAAUGUAGUUGACGAGGAGGAUGUUUAUCGAAUUUUCGACGGAUGCCUCCAAA | < 1e-05 | < 1e-05 | – | – | –
AUAAAAACGCCAGAACUACAGAAAUGUAGUUGACGAGGAGGAGGUUUAUCAAAUUUUCGGCGGAUGACUCCAAA | < 1e-05 | – | – | < 1e-05 | –
AUAAAAACGCCAGAACUACAGAAAUGUAGUUGACGAGGAGGAGGUUUAUCGAAUUUUCGUCGGAUGCCUCCAAA | < 1e-05 | < 1e-05 | < 1e-05 | < 1e-05 | –
AUAAAAACGCCAGAACUACAGAAAUGUAGCUGACGAGGAGGAGGUUUAUCGAAUUUUCGGCGGAUGCCUCCAAA | < 1e-05 | < 1e-05 | < 1e-05 | < 1e-05 | –
AUAAAAACGCCAGAACUACAGAAAUGUAGUUGACGAGGAGGAGGCUUAUCGAAUUUUCGGCGGAUGCCUCUAAA | < 1e-05 | < 1e-05 | – | – | –
AUAAAAACGCCAGAACUACAGAAAUGUAGUUGACGAGGAGGAGGUUGAUCGAAUUUUCGGCGGAUGCCUCCAAA | < 1e-05 | < 1e-05 | – | – | < 1e-05
AUAAAACCGCCCGAACUACAGAAAUGUAGUUGACGAGGAGGAGGUUUAUCGAAUUUUCGGCGGAUGCCUCCAAA | < 1e-05 | – | < 1e-05 | < 1e-05 | < 1e-05
AUAAAACCGCCUGAACUACAGAAAUGUAGUUGACGAGUACGAGGUUUAGCGAAUUGUCGGCGGAUGCCUCCAAA | < 1e-05 | – | – | – | –
AUAAAACCGCCAGGACUACAGAAAUGUAGUUGACGAGGAGGAGGUUUAUCGAAUUUUCGGCGGAUGCCUCCAAA | < 1e-05 | – | < 1e-05 | < 1e-05 | –
AUAAAACCGCCAGAACUACAGAAAUGUAGUUGACGAGGAGGCGGUUUAUCGAAUUUUCGGCGGAUGCCUCCAAA | < 1e-05 | – | – | – | –
AUAAAACCGCCAGAACUACAGAAAUGUAGUUGACGAGGAGGUGGUAUAUCUAAUUUUCGGCGGAUGUCUUCAAA | < 1e-05 | – | – | < 1e-05 | –
AUAAAACCGCCAGAACUACAGAAAUGUAGUUGACGAGGAGGAGGUUUAUCGAAUUUUCGGCGGUUGCCUCCAAA | < 1e-05 | – | < 1e-05 | < 1e-05 | –
AUAAAACCGACAGAACUACAGAAAUGUAGUUGACGAGGAGGAGGUUUAUCGAAUUUUCAGCGGAUGCAUCCAAA | < 1e-05 | – | – | < 1e-05 | –
AUAAAACCGCCAGAAAUACAGAAAUGUAGUUGACGAGGAGGAGGUUUAUCGAAUUUUCGGCGGAUGCCUCCAAA | < 1e-05 | – | – | – | –
AUAAAACCGCCAGAACUACAGAAAUGUAGUUGACGAGGAGGAGGUUUAUCGAAUUUUCGGCGGAUGCCUCUAAA | < 1e-05 | < 1e-05 | – | < 1e-05 | < 1e-05
AUAAAACCACCAGAACUACAGAAAUGUAGUUGACGAGGGGGAGGUUUAUGGAAUAUUCGGCGGAUGCCUCCAAA | < 1e-05 | – | – | – | –
AUAAAACCGCCAAAACUACAGAAAUGUAGUUGACGAGGAGGAGGUUUAUCGAAUUUUCGGCGGAUGCCUCCAAA | < 1e-05 | < 1e-05 | < 1e-05 | < 1e-05 | < 1e-05
AUAAAACCGCCAGAACUACAGAAAUGUACUUGACGAGGACGAGGUUUAUCGAAUUUUCGGCGGUUGCCUCGAAA | < 1e-05 | – | – | – | –
AUAAAACCGCCAGAACUACAGAAAUGUAGUUGACUAGGAGGAGGUUUAUCGAAUUUUCGGCGGAUGCCUCCAAA | < 1e-05 | – | < 1e-05 | – | < 1e-05
AUAAAACCGCCAGAACUACAGAAAUGUAGUUGACGAAGAGGAGGUUUAUCGAAUUUUCGGCGGAUGCCUCCAAA | < 1e-05 | < 1e-05 | – | < 1e-05 | < 1e-05
AUAAAACCGCCAGAACUACAGAAAUGUAGUUGACGAGUAGGAGGUUUAUCGAAUUUUCGGCGGAUGCCUCCAAA | < 1e-05 | < 1e-05 | – | < 1e-05 | < 1e-05
AUAAAACCGCCAGAACUACAGAAAUGUAGUUGACGAGGACGAGGUUUAUCGAAGUUUCGGCAGAUGCCUCCAAA | < 1e-05 | – | – | – | –
AUAAAACCGCCAGAACUACAGAAAUGUAGUUGACGAGGAUGAGGUUUAUCGAAUUUUCGGCGGAUGCCUCUAAA | < 1e-05 | < 1e-05 | – | – | –
AUAAAACCGCCAGAACUACAGAAAUGUAGUUGACGAGGAGAAGGUUUAUCGAAUUUUCGGCGGAUGCCUCCAAA | < 1e-05 | < 1e-05 | – | < 1e-05 | < 1e-05
AUAAAACCGCCAGAACUACAGAAAUGUAGUUGACGAGGAGGAGGUUUAUCGAAUUUUCGGCGAAUGCCUCCAAA | < 1e-05 | < 1e-05 | – | < 1e-05 | –
AUAAAACCGCCAGAACUACAGAAAUGUAGGUGACGAGGAGGAGGUUUAUCGAGUUUUCGACGGAUGCCAACAAA | < 1e-05 | – | – | < 1e-05 | –
AUAAAACCGCCAGAACUACAGAAAUGUAGUAGACGAGGAGGAGGUUUAUCGAAUUUUCGGCGGAUGCCUCCAAA | < 1e-05 | < 1e-05 | < 1e-05 | < 1e-05 | –
